{
  "source": "the BET-seq Pho4 binding data (Le et al. 2018)",
  "note": "The list shows a part of the results. Values were computed here from the reads of four pooled replicates and scatter widely.",
  "data": [
    {"biological_target": "T1, Pho4 (S. cerevisiae) (UniProt P07270)", "T1 sequence": "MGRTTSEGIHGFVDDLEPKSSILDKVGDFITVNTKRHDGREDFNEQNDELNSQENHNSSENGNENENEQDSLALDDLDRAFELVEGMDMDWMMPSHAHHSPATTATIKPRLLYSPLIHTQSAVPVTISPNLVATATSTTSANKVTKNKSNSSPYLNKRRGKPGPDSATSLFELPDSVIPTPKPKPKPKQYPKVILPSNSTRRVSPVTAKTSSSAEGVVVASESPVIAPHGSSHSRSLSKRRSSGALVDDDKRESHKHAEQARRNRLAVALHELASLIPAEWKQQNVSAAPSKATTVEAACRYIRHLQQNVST", "assay": "relative binding free energy (BET-seq); higher = weaker binding", "settings": "reference: library average", "units": {"relative binding free energy": "kcal/mol"}, "values": [
      {"sequence": "TTATGCACGTGCCGTG", "relative binding free energy": -0.01},
      {"sequence": "TAGGTCACGTGGATGT", "relative binding free energy": 0.12},
      {"sequence": "TGTCTCACGTGGGGTA", "relative binding free energy": -0.01},
      {"sequence": "GAGGTCACGTGGGCAT", "relative binding free energy": 0.04},
      {"sequence": "ATGGGCACGTGAGTTG", "relative binding free energy": 0.11},
      {"sequence": "TTGTTCACGTGGATAA", "relative binding free energy": 0.27},
      {"sequence": "TTTTGCACGTGCTCTT", "relative binding free energy": -0.04},
      {"sequence": "TGTGACACGTGAGTTA", "relative binding free energy": 0.18},
      {"sequence": "TGATTCACGTGTGAAA", "relative binding free energy": 0.4},
      {"sequence": "ATTTACACGTGTGCGG", "relative binding free energy": 0.02},
      {"sequence": "AAGGGCACGTGCAGAG", "relative binding free energy": -0.16},
      {"sequence": "TTGCGCACGTGATGCT", "relative binding free energy": 0.06},
      {"sequence": "AGCTTCACGTGTCGGG", "relative binding free energy": 0.23},
      {"sequence": "AATAACACGTGGTATG", "relative binding free energy": -0.17},
      {"sequence": "TTGATCACGTGTGTTG", "relative binding free energy": 0.29},
      {"sequence": "TTGTACACGTGCTCGT", "relative binding free energy": 0.04},
      {"sequence": "TAGTACACGTGTCTGG", "relative binding free energy": 0.05},
      {"sequence": "CTTTACACGTGTTGTT", "relative binding free energy": 0.07},
      {"sequence": "GGAATCACGTGTGTGA", "relative binding free energy": 0.27},
      {"sequence": "TGGTTCACGTGAAAAA", "relative binding free energy": 0.56},
      {"sequence": "GGTGACACGTGTTAGC", "relative binding free energy": 0.09},
      {"sequence": "TAGCTCACGTGCGGGG", "relative binding free energy": 0.08},
      {"sequence": "CATTTCACGTGCATTT", "relative binding free energy": 0.31},
      {"sequence": "TTTGTCACGTGTTTAG", "relative binding free energy": 0.09},
      {"sequence": "AACATCACGTGTGTTT", "relative binding free energy": 0.25},
      {"sequence": "ATGGACACGTGTGGTG", "relative binding free energy": 0.11},
      {"sequence": "TGGATCACGTGTTATA", "relative binding free energy": 0.21},
      {"sequence": "ATATACACGTGGAGGT", "relative binding free energy": -0.03},
      {"sequence": "TGATTCACGTGTGGTT", "relative binding free energy": 0.29},
      {"sequence": "GGGATCACGTGGATGA", "relative binding free energy": 0.06},
      {"sequence": "AATAGCACGTGGTGTA", "relative binding free energy": -0.18},
      {"sequence": "AATAGCACGTGTTCGG", "relative binding free energy": -0.19},
      {"sequence": "GGGCGCACGTGGCTGA", "relative binding free energy": -0.09},
      {"sequence": "GGCGGCACGTGAGTAT", "relative binding free energy": 0.09},
      {"sequence": "AGGCGCACGTGGGGCG", "relative binding free energy": -0.25},
      {"sequence": "TACGGCACGTGGCTTG", "relative binding free energy": -0.13},
      {"sequence": "GTGATCACGTGGCCGG", "relative binding free energy": 0},
      {"sequence": "GAAGGCACGTGTTGAA", "relative binding free energy": 0.12},
      {"sequence": "AGGGACACGTGTATAT", "relative binding free energy": 0.01},
      {"sequence": "ATATGCACGTGGTAAT", "relative binding free energy": -0.16},
      {"sequence": "TGATTCACGTGGCGCG", "relative binding free energy": 0.17},
      {"sequence": "TCTTTCACGTGTTGTT", "relative binding free energy": 0.31},
      {"sequence": "AGATCCACGTGTTGGT", "relative binding free energy": 0.09},
      {"sequence": "TATACCACGTGAGTTG", "relative binding free energy": 0.27},
      {"sequence": "GAGTTCACGTGGTGAG", "relative binding free energy": 0.32},
      {"sequence": "ATGTCCACGTGAGATT", "relative binding free energy": 0.37},
      {"sequence": "TGGTCCACGTGTTGTT", "relative binding free energy": 0.06},
      {"sequence": "ATACTCACGTGGGATT", "relative binding free energy": 0.12},
      {"sequence": "AGCTTCACGTGGTAGG", "relative binding free energy": 0.19},
      {"sequence": "TGATACACGTGTTTTA", "relative binding free energy": -0.01},
      {"sequence": "TACGGCACGTGAGTTG", "relative binding free energy": 0.23},
      {"sequence": "TTCTGCACGTGCTTTG", "relative binding free energy": 0},
      {"sequence": "GTTGCCACGTGTTGGT", "relative binding free energy": 0.04},
      {"sequence": "AAGGGCACGTGGGCTG", "relative binding free energy": -0.34},
      {"sequence": "AAGAACACGTGGTTTT", "relative binding free energy": 0.01},
      {"sequence": "GGATTCACGTGGCTTT", "relative binding free energy": 0.24},
      {"sequence": "TGTTACACGTGAGGGC", "relative binding free energy": 0.3},
      {"sequence": "GGGGCCACGTGACGGG", "relative binding free energy": -0.12},
      {"sequence": "TAGTACACGTGACGGT", "relative binding free energy": 0.17},
      {"sequence": "TGAGTCACGTGTGTCC", "relative binding free energy": 0.22},
      {"sequence": "GGTGTCACGTGTAAAG", "relative binding free energy": 0.23},
      {"sequence": "TTTGCCACGTGAGTGA", "relative binding free energy": 0.12},
      {"sequence": "GCAGTCACGTGGTGGT", "relative binding free energy": -0.01}
    ]}
  ]
}
